The values below come from the RNAGym collection of RNA variant scans (doi:10.1073/pnas.2313332121).

B1: TPR 5TU (parent)
chain: GGAUCUUCUCGAUCUAACAAAAAAGACAAAUCUGCCACAAAGCUUGAGAGCAUCUUCGGAUGCAGAGGCGGCAGCCUUCGGUGGCGCGAUAGCGCCAACGUUCUCAACUAUGACACGCAAAACGCGUGCUCCGUUGAAUGGAGUUUAUCAUG

Variants at the background level are over-represented here. Bounds are passed on as bounds.

In this data set the parent is B1. Briefly: polymerase ribozyme fitness, log enrichment relative to wild type (log ratio); higher = more active; in vitro selection for triplet polymerase activity. Put shortly: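 PCR was used to build mutant libraries for each subunit of a heterodimeric triplet polymerase ribozyme, which were then transcribed. A single in vitro selection round, in triplicate, used a frozen incubation at −7 °C and recovered extended constructs by gel excision, streptavidin beads and RT-PCR. Fitness is the logarithm of genotype enrichment relative to wild-type enrichment, averaged over replicates with inverse-variance weights. The logarithm is base 2, and after Illumina sequencing only genotypes with ≥10 input reads and ≥1 read per output were kept.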
GGAUCUUCUCGAUCUCACAAAAAAGGCAAAUCUGACACAAAGCUUGAGAGCGUCUUCGGAUGCAGAGGCGGCAGCCUUCGGUGGCGUGAUAGCGCCAACGUUCUCAACUAUGACACGCAAAACGCGUGCUCCGUUGAAUGGAGUUUAUCAUG [A16C A26G C35A A52G C87U]: the “polymerase ribozyme fitness (log ratio)” value is -3.98.
For GGAUCUUCUCGAUCUCACAAAAAGGACAAAUCUGGCACAAAGCUUGAGAGCAUCUUCGGAUGCGGAGGCGGCAGCCUUCCGUGGCGCGAUAGCGUCAACGUUCUCAACUAUGACACGCAAAACGCGUGCUCCGUUGAAUGGAGUUUAUCAUG [A16C A24G C35G A64G G80C C95U], the “polymerase ribozyme fitness (log ratio)” value is at most -4.2.
The same measure for GGAUCUUCUCGAUCGAACAAAAAAGACAAAUCUGCCACAAAGCGUGAGAGCAUCUUCGGAUGCAGAGGCGGCCUCCUUCCGUGGCGCGAUAGUGCCAACGUUCUCAACUAUGACACGCAAAACGCGUGCUCCGUUGAAUGCAGUUUAUCAUG [U15G U44G A73C G74U G80C C93U G141C]: at most -4.2; for GGAUCUUCUCGAUCUCACAUAAAAGACAAAUCUGCCACAAAGCUUGAGAGCAUCUUCGUAUGCAGAGGCGGCAUCCUUCGGUGGCGCGAUAGCGCCAACGUUCUCAACUAUGACACGCAUAACGCGUGCUCCGGUGAAUGGAGUUUAUCAUG [A16C A20U G59U G74U A120U U134G]: at most -4.2; for GGAUCUUCUCGAUCUCACUAAAAAGACAAAUCUGCCACAAAGCUUGAGAGCAUCUUCGGAUGCAGAGGCGGCGGCCUUCGGUGGCGAGAUAGCGCCAACGUUCUCAACUAUGACACGCAAAACGCGUGCUCCGUUGAAUGGAGUUUAGCAUU [A16C A19U A73G C87A U148G G152U]: at most -4.2.
The same measure for GGAUCUUCUCGAUCUCACACAAAAGACAAAUCUGCCACAAAGCUUGAGAGCAUCUUCGGAUGCAGAGGCGGCAGCCUUCGGUGGAGCGAUAGCGCCAACGUUCUCAACUAUGACACGCAAAACGCGUGCUCCGUUGAAUGCAGUUUAUCAUG [A16C A20C C85A G141C]: -2.3; for GGAUCUUCUCGAUCUCACUAAAAAGACAUAUCUGCCACGAAGCUUGAGAGCAUCUUCGGAUGCAGAGGCGGCAGCCUUCGGUGGCGCGAUAGCGCCAACGUUCUCUACUAUGACACGCAAAACGCGUUCUCCGUGGAAUGGAGUUUAUCAUG [A16C A19U A29U A39G A106U G128U U135G]: at most -4.2.
Take GGAUCUUCUCGAUCUCCCAAAAACGACAAAUCUGCCACAAAGCUUGAGAGCAUCUUCGGAUGCAGAGGCGGCAGCCUUCGGGGGCGCGAUAGGGCCAACGUUCUCAACUAUGACCCGCAAAACGCGUGCUCCGGUGAAUGGAGUUUAUCAUG [A16C A17C A24C U82G C93G A115C U134G]: the “polymerase ribozyme fitness (log ratio)” value was at most -4.2.
With GGAUCUUCUCGAUCUCACAAAAAAGACAGAUCGGCCACAAAGCUUGAGAGCAUCUUCGGCUGCAGAGGCGGCAGCCUUCGGUGGGGCGAUAGCGCCAACGUUCUCAACUAUGACACGCAAAACGCGUGCUCCGUUGAAUUGAGUUUAUGAUG [A16C A29G U33G A60C C85G G140U C149G] the figure was at most -4.2.
With GGAUCUUCUCGAUCUCACAAAAAGGACAAAUCUGCCACAAAGCUUGAGAGCAUCUUCGCAUGCAGAGGCGGCAGCCCUCGGUGGCUCGAUAGCGCCAAAGUUCUCAACUAUGACACGCAAAACGCGUGCUCCGUUGAAUGGAGUUUAUCAUC [A16C A24G G59C U77C G86U C99A G152C], the “polymerase ribozyme fitness (log ratio)” value is at most -4.2.
As to GGAUCUUCUCGAUCGAACAAAAAAGACAAAUCUGCCACAAAGCUUGAGAGCAACUUCGGAUGCAGAGGCGGCAGCCUUCGGUGGCGCGAUAGCGCCAACGUUCUCAACUAUGACACGCAAAACGCGUGCUCCGUUGAAUGGAGUUUAUCAUG [U15G U53A], the “polymerase ribozyme fitness (log ratio)” value is -0.774.
The same measure for GGAUCUUCUCGAUCUCACAAAAAGGACAAAUCUGCCACAAAGCUUGCGAGCAUCUUCGGAUGCAGAGGCGGCAGCCUUCGGUGGGGCGAUAGCGCCCACGUUCUCAACUAUGACACGCAGAACGCGUGCUCCGUUGAAUGGAGUUUAUCAUG [A16C A24G A47C C85G A97C A120G]: at most -4.2.
The same measure for GGAUCUUCUCGAUCGAACAAAAAAGACAAAUCUGCCACAAAGCUUGAGAGCAUCAUCGGAUGCAGAGGCGGCAGCCUUCGGUGGCGCGAUAGCGCCAACGUUCUCAACUAUGACACGCAAAACGCGUGCUCCGUUGAAUGGAGUUUAUCAUG [U15G U55A]: -0.257; for GGAUCUUCUCGAUCUCACAAAAAAGUCAAAUCUGCCACAAAUCUUGCGAGCAUCAUCGGAUGCAGAGGCGGCAGCCUUCGGUGGCGCGAGAGCGCCAGCGUUCUCAACUAUGACACGCAAAACGCGUGCUCCGUUGAAUGGAGUUUAUCAUG [A16C A26U G42U A47C U55A U90G A98G]: at most -4.2; for GGAUCUUCUCGAUCUCACAAAAAAGACACUUCUGCCACAAAGCGUGAGAGCAUCUUAGGAUGCAGAGGCGGCAGGCUUCGGUGGCGCGAUAGCGCCAACGUUCUCAACUAUGACACGCAAAACGCGUGCUCCGUUGAAUGGAGUUUAUCAUG [A16C A29C A30U U44G C57A C75G]: at most -4.2.
The same measure for GGAUCUUCUCGAUCGAACAAAAAAGACAAAUCUGCCACAAAGCUUGAGAGCAUCUUCGGAUGCAGAGGCGGCAGCCGUCGGUGGCGCGAUAGGGCCAACGUUCUCAACUAUGACACGCAAAACGCGUGCUCCGUUGAAUGGAGUUUAUCAUC [U15G U77G C93G G152C]: at most -4.2; for GGAUCUUCUCGAUCUCACAAAAAUGACAAAUCUGCCACAAAGCUUCAGAGCAUCUUCGGAUGCAGAGGCGGCAGCCUUCGGUGGCGCGAUAGCGCCAACGUUCUGAAGUAUGACACGCAAAACGCGUGCUCCGUUGAAUGGAGUUUAUCAUG [A16C A24U G46C C105G C108G]: at most -4.2; for GGAUCUUCUCGAUCGAACAAAAAAGACAAAUCUGCCACAAAGCUUGAGAGCAUCAUCGGAUGCAGAGGCGGCAGCCUUAGGUGGCGCGAUAGAGUCAACGUUCUUAACUAUGACACGCAAAACGCGUGCUCCGUUGAAUGGAGUUUAUCCUG [U15G U55A C79A C93A C95U C105U A150C]: at most -4.2.
Regarding GGAUCUUCUCGAUCUCACAGAAAAGAUAAAUCUGCCACAAAGCUUGAGAGCAUCUUCGGGUGCAGAGGCGGCAGCCUUCGGUGGCGCGAUAGCGCCAACGUUCUCAACUAUGACACACAAAACGCGUGCUCCGUUGAAUGGAGUUUAUCAUG [A16C A20G C27U A60G G117A], the “polymerase ribozyme fitness (log ratio)” value was -3.38.
